# Test results: the supplement of paper PMC10126150
# Values marked as one replicate rest on one cluster of the flow cell; about a third of the high ones do not repeat.
# Tested on: ATP
# Experiment: switch fluorescence ratio, 500 uM ATP over buffer (Cy3 cluster intensity, sum of 5 cycles each) (fold (ratio)); higher = stronger signal-on switching upon ATP binding; sequences stand for … in TCGTCGGCAGCGTCAGATGTGTATAAGAGACAGTTTTTTTTTTTTTTTTTTTTTTTTT…TC
# Details: aptamer strand: ATP DNA aptamer (quencher-CACCTGGGGGAGTATTGCGGAGGAAGG + anchor), 100 nM annealed; ATP concentration: 500 uM; one replicate
# Procedure, shortened: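 For every switch-domain sequence, the fluorescence ratio is the mean of per-cluster values, each being summed target-cycle Cy3 intensity over summed buffer-cycle Cy3 intensity. Clusters outside 100-1000 RFU were excluded. On a modified Illumina MiSeq flow-cell, the Cy3-labelled switching-strand clusters were annealed to 100 nM quencher-labelled ATP aptamer, imaged in selection buffer and then after 15 min with 500 uM ATP at 22 °C. Five such cycles were run, with NaOH stripping and re-annealing between them.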
# 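Further: ATP exposure 15 min at 22 °C before imaging.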
row,Sequence,switch fluorescence ratio
1,ATGAAGAGAC,0.996
2,ATGAATAGGT,1
3,ATGAATCACT,1.01
4,ATGAATCCAG,1
5,ATGAATGCCA,0.963
6,ATGAATTTAT,1.05
7,ATGACAGATG,1.03
8,ATGACAGGAA,0.992
9,ATGACATTGT,0.975
10,ATGACCTGAG,1.02
11,ATGACGAAGA,1.01
12,ATGACGAGGT,1.03
13,ATGACGCGCC,1.05
14,ATGAGCATAT,1.17
15,ATGAGCCAT,1.04
16,ATGAGCCTC,0.984
17,ATGAGCTTGA,0.965
18,ATGAGGACAG,0.949
19,ATGAGGCCGT,1.04
20,ATGAGTAGCC,1.02
21,ATGAGTCGCT,1.04
22,ATGAGTGGG,1.02
23,ATGATAACTA,0.997
24,ATGATACGCT,1.05
25,ATGATCATTT,1.02

row,Sequence,switch fluorescence ratio
1,ATGATGAGGA,1.01
2,ATGATGCGTT,0.98
3,ATGATGTCCG,1.03
4,ATGATGTCGC,1.05
5,ATGATTCTTC,0.987
6,ATGATTTGCT,0.98
7,ATGCACAGCT,1.01
8,ATGCAGCCTG,1.02
9,ATGCAGCGGA,1.05
10,ATGCAGGCGC,0.903
11,ATGCATAAGT,1.01
12,ATGCCAACAT,0.964
13,ATGCCACTTT,0.968
14,ATGCCCAATT,0.977
15,ATGCCCACAC,1.19
16,ATGCCCATAT,1.03
17,ATGCCCCGCT,0.976
18,ATGCCGAGTT,0.982
19,ATGCCTATGC,1.02
20,ATGCCTGCTT,0.987
21,ATGCCTTTGG,0.984
22,ATGCGAAACT,1.04
23,ATGCGAGCTT,0.983
24,ATGCGCACCA,1.02
25,ATGCGCAGTT,1.01

row,Sequence,switch fluorescence ratio
1,ATGCGCGATT,1.06
2,ATGCGGCCGA,0.984
3,ATGCGGCTAA,0.968
4,ATGCGGGCCG,0.924
5,ATGCTAGGAT,0.997
6,ATGCTATGCC,1.4
7,ATGCTGCATT,1.03
8,ATGCTGCGCT,1
9,ATGCTTACTT,1.05
10,ATGGACGAGG,0.967
11,ATGGATGC,1.06
12,ATGGATTACT,1.02
13,ATGGATTCAA,1.02
14,ATGGATTCAC,0.992
15,ATGGCAAAAT,1.01
16,ATGGCAAACT,0.993
17,ATGGCATATT,1.01
18,ATGGCATCTC,0.978
19,ATGGCCTGGC,1
20,ATGGCGGGAG,0.975
21,ATGGCTCATG,0.986
22,ATGGCTGTTC,0.988
23,ATGGCTTTCT,1.01
24,ATGGGAAGGA,1.03
25,ATGGGATGTC,0.921

row,Sequence,switch fluorescence ratio
1,ATGGGCCAGT,0.996
2,ATGGGCGCTC,1.03
3,ATGGGCGGA,1.02
4,ATGGGGCTAT,1.02
5,ATGGGGTGAT,1.04
6,ATGGTCAGAC,0.972
7,ATGGTCATCG,1.02
8,ATGGTGCGAC,1.06
9,ATGGTTCAGT,1.01
10,ATGGTTCCGC,1.11
11,ATGTAAATTC,1.01
12,ATGTAATGTG,0.996
13,ATGTACCTGT,1.02
14,ATGTACTCCC,1.88
15,ATGTAGCGTC,1.09
16,ATGTAGTATA,0.98
17,ATGTATCTGG,0.994
18,ATGTATG,0.959
19,ATGTATTTCG,0.967
20,ATGTCAAGTG,0.976
21,ATGTCAGATC,1.02
22,ATGTCAGGAC,1.01
23,ATGTCATAGT,1.03
24,ATGTCATCTG,1.03
25,ATGTCCAGTG,1.21
